# Reference: PubChem BioAssay AID1794844 (National Center for Advancing Translational Sciences (NCATS), 2023)
# Among all 2,800 compounds or so, fewer than 10 were called active. Inconclusive means that the source gave no clear call. Such entries were picked first, then a sample of the others. The call rests on the fitted dose curve; in most records, active means well fitted inhibition curve with a large enough effect; inconclusive means small, poorly fitted or top-dose-only effect; inactive means no such curve, though single readings can be large or run the other way. Potencies beside an inconclusive call are fits to weak or partial responses and may not hold up.
# Target: Metallo-beta-lactamase type 2 (Klebsiella pneumoniae) (UniProt C7C422)
# Experiment: qHTS to identify inhibitors of the New Delhi Metallo-beta-lactamase (NDM): Nitrocefin screen against the machine-based learning selections.
# Conditions: NDM-1 enzyme, nitrocefin hydrolysis, absorbance 485 nm; series mostly up to 38.4 µM
# Outline: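 Hydrolysis by 2 nM NDM-1 was followed by absorbance after >30 min compound preincubation in HEPES pH 7.0 buffer with 1 uM Zn2SO4. For nitrocefin (16.7 uM, 15 min, 485 nm) and meropenem (50 uM, 30 min, 300 nm), each substrate ran on separate plates.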
# Potency means the concentration at half of the fitted maximal effect; tags describe the fitted curve by direction and shape.
# Chain of UniProt C7C422 (C7C422 whole entry, looked up): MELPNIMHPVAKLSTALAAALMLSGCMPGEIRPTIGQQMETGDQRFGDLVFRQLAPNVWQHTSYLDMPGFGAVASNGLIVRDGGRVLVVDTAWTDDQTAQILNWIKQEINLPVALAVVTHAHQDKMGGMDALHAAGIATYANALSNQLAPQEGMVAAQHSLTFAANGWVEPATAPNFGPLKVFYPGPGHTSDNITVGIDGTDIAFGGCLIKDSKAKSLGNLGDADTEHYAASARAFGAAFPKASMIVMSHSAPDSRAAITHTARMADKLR
row,Structure (SMILES),Potency
1,Cc1cc(C(=O)N[C@@H]2C[C@H](Cn3cc(C4CC4)nn3)[C@@H](O)[C@H]2O)no1,"inconclusive: 17.2 µM [inhibitor, partial curve, poor fit]"
2,Cc1ccn2c(C(=O)N[C@H](Cc3ccccn3)C3CC(O)C3)nnc2n1 (stereo partly specified),"inconclusive: 13.4 µM [inhibitor, partial curve, poor fit]"
3,COCCOc1cc(-c2noc([C@@H]3CCCN3Cc3ccc(C(=O)O)cc3)n2)ccn1,"inconclusive: 30.6 µM [inhibitor, single point]"
4,Nc1ccsc1C(=O)N[C@H](Cc1ccncc1)C1CC(O)C1 (stereo partly specified),"inconclusive: 15 µM [inhibitor, partial curve]"
5,CCc1noc([C@@H]2CC(F)(F)CN2C(=O)c2ccoc2C)n1,inactive
6,COCCn1c(C)cnc1CCNC(=O)c1cc(C)nn1C,"inconclusive: 8.42 µM [inhibitor, partial curve]"
7,Clc1ccccc1-c1cc(C2CCN(Cc3cc4n(n3)CCNC4)CC2)[nH]n1,"inconclusive: 23.7 µM [inhibitor, single point]"
8,COc1ccc(-c2noc(C(=O)O)c2[C@@H](C)NC(=O)c2ccccc2)cc1,"inconclusive: 27.3 µM [inhibitor, single point]"
9,Cc1cccc(OCC2(CNC(=O)c3cnccn3)C[C@@H](O)[C@@H](O)C2)n1 (stereo partly specified),"inconclusive: 17.2 µM [inhibitor, partial curve, poor fit]"
10,O=C(c1ccc2cccnc2c1O)N1CCCC(CCc2ccccc2F)C1 (stereo unspecified),"inconclusive: 29.9 µM [inhibitor, single point]"
11,Cn1c(CNC(=O)c2cccc(C3CCNC3)c2)nc2ccccc21 (stereo unspecified),"inconclusive: 7.51 µM [inhibitor, partial curve, poor fit]"
12,CC(C)NC(=O)N1CCN(C(=O)N2CCOCC2)[C@@H](C(=O)N[C@H](Cc2c[nH]c3ccccc23)C(N)=O)C1,inactive
13,OCc1cccc(-c2ccc3ncc(Nc4cccnc4)n3n2)c1,"inconclusive: 27.3 µM [inhibitor, single point]"
14,Nc1ncccc1CN1C[C@H]2CN(C(=O)C3CCC3)C[C@@]2(C(=O)O)C1,"inconclusive: 15 µM [inhibitor, partial curve]"
15,OCCc1ccc(Nc2cnc3ccc(-c4cccc(CO)c4)nn23)cc1,"inconclusive: 21.7 µM [inhibitor, partial curve, poor fit]"
16,CN1C(=O)CC(C(=O)O)C12CCN(C(=O)CCc1cccnc1)CC2 (stereo unspecified),inactive
17,Cn1c(CCNC(=O)c2ccccc2C2CCNC2)nc2ccccc21 (stereo unspecified),"inconclusive: 10.6 µM [inhibitor, partial curve]"
18,Cc1noc(C)c1S(=O)(=O)N1CCCN(Cc2ccncc2)C(c2ccccc2)CC(=O)NCC1 (stereo unspecified),inactive
19,Cc1cc(Cn2cc3c4c(cccc42)[C@H](CC(C)C)N[C@H](C(=O)O)C3)no1,"inconclusive: 8.64 µM [inhibitor, full curve]"
20,OC[C@@H]1O[C@H](CN(Cc2cccc(Cl)c2)Cc2cccc(Cl)c2)[C@H](N2CCN(c3ccccn3)CC2)[C@@H]1O,"inconclusive: 16.8 µM [inhibitor, partial curve]"
21,O=C(Cc1c[nH]c2ncc(-c3ccccc3F)cc12)NCc1cccnc1,inactive

row,Structure (SMILES),Potency
1,O=C(c1cc(-c2ccc(O)cc2)n[nH]1)N1CCCC(CCc2ccc(F)cc2)C1 (stereo unspecified),inactive
2,O=C(O)c1cccc(-c2n[nH]c3c2CC(=O)N(c2ccccc2)C3)c1,inactive
3,COc1ccc(-c2[nH]ncc2CNC(=O)C2NCCc3[nH]cnc32)cc1 (stereo unspecified),"inconclusive: 9.45 µM [inhibitor, full curve, poor fit]"
4,O=C(NCc1ccc(F)cc1)c1ccnc(-c2nnc3ccc(Nc4ccccc4)nn23)c1,"inconclusive: 29.9 µM [inhibitor, single point]"
5,CCNC(=O)[C@@H]1C[C@H](n2cc(CN(C)C(=O)NC3CCCCC3)nn2)CN1,"inconclusive: 13.4 µM [inhibitor, partial curve]"
6,COc1ccc(CN2CCNc3cc(-c4ccnc(C)c4)ncc3C2)cc1O,"inconclusive: 15.4 µM [inhibitor, single point]"
7,CN1CCC(N2CCC[C@H]2C(=O)NCc2cc3n(n2)CCCNC3)CC1,"inconclusive: 18.9 µM [inhibitor, single point]"
8,C[C@@]1(O)CCN(c2ncccc2C(=O)c2nccs2)C[C@@H]1O,inactive
9,COC(=O)c1ccc2nc(C[C@@H]3C[C@@H](C(C)C)[C@H](CN(C)C)C=C3C)[nH]c2c1,inactive
10,COc1ccc(CCN(Cc2ccncc2)C(=O)CC2COCCN2)cc1 (stereo unspecified),"inconclusive: 29.9 µM [inhibitor, single point]"
11,O[C@@H]1[C@@H](Cn2cc(-c3cccnc3)nn2)C[C@@H](NCc2ccc(F)cc2)[C@@H]1O,"inconclusive: 15 µM [inhibitor, partial curve]"
12,O=C(O)c1ccc(-c2ncc3cnc(-c4cccc(F)c4)cn23)cc1,"inconclusive: 12.2 µM [inhibitor, partial curve]"
13,O=C(CC(c1cccc(O)c1)c1ccccc1Cl)NCc1cccnc1 (stereo unspecified),"inconclusive: 18.9 µM [inhibitor, partial curve]"
14,COc1ccc(CNC(=O)C[C@@H]2O[C@H](CNC(=O)NC(C)C)[C@@H](O)[C@H]2O)cc1,"inconclusive: 27.3 µM [inhibitor, partial curve]"
15,O=C(NCc1ccc2c(c1)OCO2)C1CCN(c2cn[nH]c(=O)c2)C1 (stereo unspecified),inactive
16,Cc1ccc2nc(C)cc(C(=O)N3CCC(c4cc(CC(=O)O)[nH]n4)CC3)c2c1,active: 9.45 µM
17,OC1CC([C@@H](Cc2ccccn2)NC2CCC3(CCNCC3)CC2)C1 (stereo partly specified),"inconclusive: 23.7 µM [inhibitor, single point]"
18,Cc1ccc(-c2ccc(N)nc2)c2cccnc12,"inconclusive: 15 µM [inhibitor, partial curve]"
19,O=C1CC(C(=O)O)C2(CCN(c3cc(C4CC4)ncn3)CC2)N1 (stereo unspecified),inactive
20,Cc1ncc2c(c1CNC(=O)c1ccc(OC(F)F)cc1)CCNC2,"inconclusive: 16.8 µM [inhibitor, partial curve, poor fit]"
